According to publication PMC3939360:
These are yes or no findings as the source states them, for the method shown. Binding seen in cells or lysates may run through a third protein. Some binding calls cover weakened binding; strength is not graded here. Tags and fused reporters may be left off the sequences shown.

Amino acid sequences for entries named in this document (tags omitted). Residues count along the entry.
UniProt B2RXS4, residues 20-1842: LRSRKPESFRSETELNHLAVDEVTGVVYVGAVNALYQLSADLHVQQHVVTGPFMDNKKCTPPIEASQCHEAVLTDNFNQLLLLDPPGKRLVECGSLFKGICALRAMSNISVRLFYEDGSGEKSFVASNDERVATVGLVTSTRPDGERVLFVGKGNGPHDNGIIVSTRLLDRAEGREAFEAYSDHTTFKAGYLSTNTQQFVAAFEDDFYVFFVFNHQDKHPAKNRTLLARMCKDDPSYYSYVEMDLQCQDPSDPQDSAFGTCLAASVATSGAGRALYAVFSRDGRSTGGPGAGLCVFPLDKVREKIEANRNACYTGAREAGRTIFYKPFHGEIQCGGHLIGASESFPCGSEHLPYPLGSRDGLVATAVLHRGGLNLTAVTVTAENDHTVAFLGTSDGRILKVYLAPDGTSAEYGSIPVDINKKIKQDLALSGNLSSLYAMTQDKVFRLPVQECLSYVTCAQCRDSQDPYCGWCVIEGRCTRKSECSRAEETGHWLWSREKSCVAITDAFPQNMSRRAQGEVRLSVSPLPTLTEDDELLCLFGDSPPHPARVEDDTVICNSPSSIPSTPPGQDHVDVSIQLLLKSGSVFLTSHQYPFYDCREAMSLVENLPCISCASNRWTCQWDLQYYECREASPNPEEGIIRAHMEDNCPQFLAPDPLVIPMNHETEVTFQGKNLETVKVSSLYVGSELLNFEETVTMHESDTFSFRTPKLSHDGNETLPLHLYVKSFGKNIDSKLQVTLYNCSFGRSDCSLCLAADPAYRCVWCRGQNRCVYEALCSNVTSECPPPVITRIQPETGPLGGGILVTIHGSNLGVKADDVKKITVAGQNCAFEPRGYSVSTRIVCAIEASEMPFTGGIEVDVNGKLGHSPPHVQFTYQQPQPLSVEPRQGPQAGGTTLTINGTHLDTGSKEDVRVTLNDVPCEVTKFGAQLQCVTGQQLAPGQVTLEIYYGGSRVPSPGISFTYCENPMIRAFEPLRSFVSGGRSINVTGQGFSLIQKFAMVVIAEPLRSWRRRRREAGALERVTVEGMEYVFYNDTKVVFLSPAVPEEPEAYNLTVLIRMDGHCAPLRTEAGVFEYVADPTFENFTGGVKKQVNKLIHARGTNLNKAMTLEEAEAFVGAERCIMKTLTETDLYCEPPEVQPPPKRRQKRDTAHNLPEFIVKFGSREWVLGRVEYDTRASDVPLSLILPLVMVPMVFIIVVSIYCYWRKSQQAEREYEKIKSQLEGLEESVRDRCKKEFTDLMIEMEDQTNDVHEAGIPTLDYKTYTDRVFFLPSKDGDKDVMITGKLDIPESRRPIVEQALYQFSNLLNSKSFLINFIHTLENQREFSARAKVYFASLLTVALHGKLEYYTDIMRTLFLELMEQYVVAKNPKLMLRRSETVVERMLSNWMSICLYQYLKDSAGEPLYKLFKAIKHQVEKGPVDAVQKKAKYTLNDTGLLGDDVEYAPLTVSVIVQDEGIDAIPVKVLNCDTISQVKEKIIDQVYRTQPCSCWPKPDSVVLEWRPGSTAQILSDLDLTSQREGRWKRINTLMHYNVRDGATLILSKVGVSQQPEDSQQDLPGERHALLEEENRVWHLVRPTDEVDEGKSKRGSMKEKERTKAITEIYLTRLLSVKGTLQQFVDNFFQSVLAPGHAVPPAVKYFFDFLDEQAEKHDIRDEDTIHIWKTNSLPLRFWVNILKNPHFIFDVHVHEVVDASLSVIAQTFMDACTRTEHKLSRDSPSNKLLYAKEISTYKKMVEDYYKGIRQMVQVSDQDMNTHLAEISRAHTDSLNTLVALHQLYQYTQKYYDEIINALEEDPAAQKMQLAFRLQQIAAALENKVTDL

Legend:
[1] = target: T1, FLAG-tagged Rnd3 (UniProt P61587); assay: co-IP; P19 cells co-transfected with FLAG-Rnd and VSV-Plexin plasmids, lysed 24 h later in RIPA-like buffer (50 mM Tris-HCl pH 8, 150 mM NaCl, 0.5% NP40 Igepal, 10% glycerol); lysate incubated overnight at 4 °C with anti-FLAG M2 agarose beads; immunoblot with anti-VSV and anti-FLAG
T1 sequence: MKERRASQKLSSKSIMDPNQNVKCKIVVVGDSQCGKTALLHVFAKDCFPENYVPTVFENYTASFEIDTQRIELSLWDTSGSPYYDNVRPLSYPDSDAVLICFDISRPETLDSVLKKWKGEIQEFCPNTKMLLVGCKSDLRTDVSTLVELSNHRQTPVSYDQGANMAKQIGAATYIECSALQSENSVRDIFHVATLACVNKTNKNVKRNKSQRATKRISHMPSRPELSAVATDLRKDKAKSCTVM

[2] = target: T2, FLAG-Rnd2 (UniProt P52198); assay: as above
T2 sequence: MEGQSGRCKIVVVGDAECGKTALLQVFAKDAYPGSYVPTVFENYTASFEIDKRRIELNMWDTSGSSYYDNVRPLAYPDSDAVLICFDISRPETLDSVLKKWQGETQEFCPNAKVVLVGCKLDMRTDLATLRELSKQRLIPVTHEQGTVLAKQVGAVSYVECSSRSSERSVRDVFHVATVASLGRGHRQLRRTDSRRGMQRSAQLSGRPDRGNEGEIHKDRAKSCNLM

With “VSV-tagged Plexin B2 (from UniProt B2RXS4 20-1842) (receptor)” the binding [1] was “binds” and the binding [2] was “binds”.
